# Assay results: PubChem BioAssay (NCATS)
# The shares of active, inactive and inconclusive entries below differ from those in the screen. For some assays here: Potencies of inconclusive entries are left out as doubtful fits. Activity calls are given as the source filed them. The call rests on the fitted dose curve; in most records, active means well fitted curve in the direction sought with a large enough effect; inconclusive means small, poorly fitted or top-dose-only effect, or another doubt; inactive means no such curve, though single readings can be large; an effect the other way counts as inactive or inconclusive.
# Legend:
# [1] = tested on: Zika virus NS2B-NS3 protease (linked construct); assay: Primary screen NINDS Rhodamine qHTS for Zika virus inhibitors (AID 1347160); conditions: purified NS2B-NS3 protease, Rhodamine110 substrate fluorescence; series mostly up to 112 µM; further: potency means the concentration at half of the fitted maximal effect; nearly all actives have a fitted effect of over 55% in size
# How it was run: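 Purified NS2B-NS3 protease with the NS2B hydrophilic domain joined by a flexible linker (25 nM) in 10 mM Tris-HCl pH 8.0, 0.01% Tween 20, preincubated 15 min at RT with compound; Rhodamine110 peptide substrate 1.5 µM; fluorescence change over 15 min; 4-parameter Hill fit.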
# [2] = OV-KATE Cancer Cell Toxicity qHTS against the NCATS CANVASS Library (AID 1347345); conditions: OV-KATE cells viability, CellTiter-Glo luminescence, 72 h; series mostly up to 38.3 µM; further: potency means the concentration at half of the fitted maximal effect
# How it was run: (§1)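 Per well, 1000 cells; exposure 72 h with compound at 11 final concentrations; readout CellTiter-Glo luminescence.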
# [3] = HPAF-II Cancer Cell Toxicity qHTS against the NCATS CANVASS Library (AID 1347346); conditions: HPAF-II viability, CellTiter-Glo ATP luminescence, 72 h; series mostly up to 38.3 µM; further: nearly all actives have a fitted effect of over 55% in size; further: potency means the concentration at half of the fitted maximal effect; on activity change, negative = cytotoxicity: on the % scale 0 is the no-effect control and ±100 the full control effect
# How it was run: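 Cytotoxicity in HPAF-II pancreatic cancer cells: 72 h treatment across 11 concentrations, ATP-based CellTiter-Glo luminescence endpoint.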
# [4] = UWB1.289 Cancer Cell Toxicity qHTS against the NCATS CANVASS Library (AID 1347347); conditions: UWB1.289 viability, CellTiter-Glo luminescence, 72 h; series mostly up to 38.3 µM; further: potency means the concentration at half of the fitted maximal effect; nearly all actives have a fitted effect of over 60% in size
# How it was run: as §1
# [5] = OV-SAHO Cancer Cell Toxicity qHTS against the NCATS CANVASS Library (AID 1347348); conditions: OV-SAHO viability, CellTiter-Glo luminescence, 72 h; activity change, negative = cytotoxicity: at 38.3 µM (top of the series); further: potency means the concentration at half of the fitted maximal effect; nearly all actives have a fitted effect of over 55% in size
# How it was run: as §1
# [6] = Panc-1005 Cancer Cell Toxicity qHTS against the NCATS CANVASS Library (AID 1347349); conditions: Panc-1005 viability, CellTiter-Glo luminescence, 72 h; series mostly up to 38.3 µM; further: nearly all actives have a fitted effect of over 60% in size; further: potency means the concentration at half of the fitted maximal effect; on activity change, negative = cytotoxicity: on the % scale 0 is the no-effect control and ±100 the full control effect
# How it was run: as §1
# [7] = SW1088 Cancer Cell Toxicity qHTS against the NCATS CANVASS Library (AID 1347350); conditions: SW1088 viability, CellTiter-Glo luminescence, 72 h; series mostly up to 38.3 µM; further: potency means the concentration at half of the fitted maximal effect; nearly all actives have a fitted effect of over 75% in size
# How it was run: as §1
# [8] = U-118MG Cancer Cell Toxicity qHTS against the NCATS CANVASS Library (AID 1347351); conditions: U-118MG viability, CellTiter-Glo luminescence, 72 h; series mostly up to 38.3 µM; further: potency means the concentration at half of the fitted maximal effect
# How it was run: as §1
# [9] = A2780 Cisplatin Sensitive Ovarian Cancer Cell Toxicity qHTS against the NCATS CANVASS Library (AID 1347353); conditions: A2780 ovarian cancer viability, ATPLite luminescence, 72 h; series mostly up to 46.1 µM; further: nearly all actives have a fitted effect of over 60% in size; further: potency means the concentration at half of the fitted maximal effect; on activity change, negative = cytotoxicity: on the % scale 0 is the no-effect control and ±100 the full control effect
# How it was run: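 Seventy-two-hour exposure of cisplatin-sensitive A2780 ovarian cells to an 11-concentration qHTS series; cytotoxicity is inferred from loss of ATPLite luminescence. Bortezomib titration served as positive control.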
# [10] = UWB1.289-WTBRCA1 Cancer Cell Toxicity qHTS against the NCATS CANVASS Library (AID 1347354); conditions: UWB1.289-WTBRCA1 viability, CellTiter-Glo luminescence, 72 h; series mostly up to 38.3 µM; further: potency means the concentration at half of the fitted maximal effect
# How it was run: (§2)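 qHTS cytotoxicity: compounds tested in 11 concentrations on 1000 seeded cells per well over 72 h; bortezomib served as control; signal from CellTiter-Glo luminescence.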
# [11] = HEK-293 Cancer Cell Toxicity qHTS against the NCATS CANVASS Library (AID 1347355); conditions: HEK-293 viability, CellTiter-Glo luminescence, 72 h; series mostly up to 46.1 µM; further: nearly all actives have a fitted effect of over 65% in size; further: potency means the concentration at half of the fitted maximal effect; on activity change, negative = cytotoxicity: on the % scale 0 is the no-effect control and ±100 the full control effect
# How it was run: as §2
# [12] = qHTS for Antimalaria activity screened against the NCATS CANVASS Library (AID 1347380);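 further: Plasmodium falciparum strain Dd2 asexual parasites grown in red blood cells; nearly all actives have a fitted effect of over 40% in size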; conditions: P. falciparum Dd2 growth, SYBR Green fluorescence, 72 h; series mostly up to 28.7 µM
# How it was run: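 Growth inhibition of asexual erythrocytic P. falciparum Dd2 was quantified by SYBR Green DNA staining. Cultures grew 72 h with compound (11-point series) in hypoxic gas at 37C; lysis and staining lasted 18 h.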
# [13] = qHTS for Activators of p53 Stress Response Pathway screened against the NCATS CANVASS Library (AID 1347388); conditions: p53RE-bla HCT-116, beta-lactamase reporter, 16 h; series mostly up to 46.1 µM; further: potency means the concentration at half of the fitted maximal effect
# How it was run: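 Beta-lactamase reporter driven by p53 response elements in HCT-116 cells, read as the 460 nm/530 nm emission ratio after CCF4 loading, following 16 h of exposure to an 11-point series. Cell viability was measured in the same wells by CellTiter-Glo luminescence.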
# [14] = qHTS for activators of Nrf2/ARE signaling pathway screened against the NCATS CANVASS Library (AID 1347391); conditions: ARE-bla HepG2, beta-lactamase reporter, 16 h; series mostly up to 46.1 µM; further: nearly all actives have a fitted effect of over 60% in size; further: potency means the concentration at half of the fitted maximal effect
# How it was run: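 Cells carrying an ARE-driven beta-lactamase reporter (HepG2 background) are dosed for 16 h, then stained with CCF4. Cell viability in the same wells is measured by CellTiter-Glo luminescence.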
# [15] = qHTS for inhibitors of Wild type Zika virus screened against the NCATS CANVASS Library (AID 1347396); conditions: Vero cells, Zika virus CPE, CellTiter-Glo, 72 h; series mostly up to 45.9 µM; further: potency means the concentration at half of the fitted maximal effect
# How it was run: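 Vero 766 (African green monkey) cells, 1000 per well, attached overnight, then compounds were added in an 11-point series before wild-type Zika virus infection. After 72 h at 37C, cell viability was read as CellTiter Glo luminescence.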
# [16] = KB-8-5-11 Cancer Cell Toxicity qHTS against the NCATS CANVASS Library (AID 1347364); conditions: KB-8-5-11 MDR cells viability, CellTiter-Glo, 72 h; activity change, negative = toxicity: at 46.1 µM (top of the series); series mostly up to 46.1 µM; further: nearly all actives have a fitted effect of over 75% in size; further: potency means the concentration at half of the fitted maximal effect
# How it was run: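 Natural products were titrated in 11 points onto KB-8-5-11 cells, 500 per well, and cytotoxicity was scored from CellTiter-Glo luminescence after 72 hr culture.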
# [17] = qHTS for Hypoxia signaling pathway (HIF-1) antagonists against the NCATS CANVASS Library (AID 1347374); conditions: HRE-bla ME-180 cells, HIF-1 beta-lactamase reporter, CoCl2; series mostly up to 38.3 µM
# How it was run: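 HRE-bla ME-180 cells (2,000/well, 0.5% dialyzed FBS) were pre-incubated 5 h, then given an 11-point compound series plus CoCl2 (60 uM solution as added) for 17 h at 37C. CCF4 β-lactamase read (ex 405, em 460/530 nm) after 2 h at RT.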
# [18] = qHTS for inhibitors of ER calcium dysfunction: SERCaMP assay screened against the NCATS CANVASS Library (AID 1347393); conditions: SH-SY5Y GLuc-SERCaMP (Gaussia luciferase released on ER calcium loss) secretion, thapsigargin, luminescence; activity change, negative = inhibition: at 76.6 µM (top of the series) unless noted; further: nearly all actives have a fitted effect of over 40% in size; further: potency means the concentration at half of the fitted maximal effect;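 on activity change, negative = inhibition: on the % scale 0 is the no-effect control and ±100 the full control effect; lower secreted reporter signal means inhibitor of ER calcium depletion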
# How it was run: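 Thapsigargin-induced ER calcium depletion drives GLuc-SERCaMP secretion from SH-SY5Y cells; compounds given 16 h beforehand were scored by lowered coelenterazine luminescence after 4 h challenge.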
# Tags describe the fitted curve by direction and shape.
SMILES,Potency [1],Potency [2],Potency [3],Potency [4],Potency [5],Potency [6],Potency [7],Potency [8],Potency [9],Potency [10],Potency [11],Potency [12],Potency [13],Potency [14],Potency [15],Potency [16],Potency [17],"activity change, negative = inhibition [18]",Potency [18]
CO/C=C/C(=O)c1cc2cnc3c(N)cc(=NC(=O)C(C)C)c([nH]1)c23,active: 17.5 µM,"inconclusive [cytotoxic, full curve]","inconclusive [cytotoxic, full curve]","inconclusive [cytotoxic, full curve]",active: 0.0375 µM,"inconclusive [cytotoxic, full curve]","inconclusive [cytotoxic, partial curve, poor fit]","inconclusive [cytotoxic, full curve, poor fit]",active: 0.0296 µM,"inconclusive [rising, partial curve, poor fit]",active: 0.166 µM,inactive,"inconclusive [activator, single point]",inactive,"inconclusive [inhibitor, full curve]",–,–,–,–
COc1c(O)cc2c(c1O)C(=O)c1c(coc1C)C2=O,active: 9.84 µM,"inconclusive [cytotoxic, single point]",inactive,–,–,inactive,"inconclusive [cytotoxic, partial curve, poor fit]","inconclusive [cytotoxic, partial curve]","inconclusive [cytotoxic, single point]",–,inactive,–,"inconclusive [activator, single point]",active: 7.41 µM,–,inactive,active: 14.9 µM,inconclusive: -38.7% [inhibitor],–
C/C=C/c1cc2c(c(=O)o1)C(=O)[C@@H](O)[C@H](C)O2,"inconclusive [inhibitor, partial curve, poor fit]","inconclusive [cytotoxic, single point]","inconclusive [cytotoxic, single point]","inconclusive [cytotoxic, partial curve]",–,–,"inconclusive [cytotoxic, single point]",–,–,"inconclusive [cytotoxic, single point]",–,inactive,active: 37.1 µM,active: 4.67 µM,–,"inconclusive [cytotoxic, single point]",active: 14.9 µM,–,"inconclusive [inhibitor, partial curve, poor fit]"
COC(=O)C1=C[C@]23C[C@@H](C)CC[C@@H]2[C@@]2(C)CC[C@@H](C(C)C)[C@@](O)(O3)[C@@H]12,active: 44 µM,"inconclusive [cytotoxic, single point]",–,"inconclusive [cytotoxic, single point]","inconclusive [cytotoxic, single point]",inactive,"inconclusive [cytotoxic, single point]",–,"inconclusive [cytotoxic, single point]","inconclusive [cytotoxic, single point]","inconclusive [cytotoxic, partial curve]",–,–,"inconclusive [activator, partial curve]","inconclusive [inhibitor, partial curve]",–,–,–,–
CC(C)=CCC/C(C)=C/Cc1cc([C@@H]2CC(=O)c3c(cc(O)c(CC=C(C)C)c3O)O2)ccc1O,active: 6.97 µM,"inconclusive [cytotoxic, single point]","inconclusive [cytotoxic, partial curve, poor fit]","inconclusive [cytotoxic, partial curve]","inconclusive [cytotoxic, single point]","inconclusive [cytotoxic, single point]",–,–,inactive,–,"inconclusive [cytotoxic, single point]",–,–,active: 20.9 µM,–,–,"inconclusive [inhibitor, single point]",–,active: 38.4 µM
